Experimental data: patent US20170008949A1 (Hoffmann-La Roche, published 2017)

B1: PAI1-0005 (RCL-SMB-Fc conjugate) (Fc fusion)
chain: GTVASSSTAVIVSARGGGGSGGGGSGGGGSGGGGSGGGGSGGGGSESCKGRCTEGFNVDKKCQCDELCSYYQSCCTDYTAE[human IgG1 Fc not printed]
B2: PAI1-0036 (RCL-SMB-Fc conjugate) (Fc fusion)
chain: B1 chain with R15S
B3: PAI1-0004 (RCL-SMB-Fc conjugate) (Fc fusion)
chain: GTVASSSTAVIVSARGGGGSGGGGSGGGGSGGGGSESCKGRCTEGFNVDKKCQCDELCSYYQSCCTDYTAE[human IgG1 Fc not printed]

Biological target: recombinant glycosylated human PAI-1 (active), produced in insect cells (human, UniProt P05121, glycosylated (sites not given))
Test: cell-based or functional assay

IC50 (µM) vs. human PAI-1, PAI-1 inhibition assay (residual rPA serine protease activity) [µM]	Binder
0.002	B1
0.001	B2
0.002	B3

Biological target: recombinant non-glycosylated human PAI-1 (active), produced in E. coli as N-terminal 6xHis-tagged fusion … (human, UniProt P05121)
Test: cell-based or functional assay

IC50 (µM) vs. human PAI-1, PAI-1 inhibition assay (residual rPA serine protease activity) [µM]	Binder
0.0005	B1
0.001	B2
0.003	B3

Residue numbers refer to the chain shown, from its start.
